The whole screen tested about 420,000 compounds, of which about 64,000 (15%) were called active. The inconclusive results got no clear call from the source; some entries with a clear call stand among them for comparison. The call rests on the fitted dose curve; in most records, active means well fitted inhibition curve with a large enough effect; inconclusive means small, poorly fitted or top-dose-only effect; inactive means flat fitted curve, though single readings scatter. Potencies of inconclusive entries are left out as doubtful fits.
Assay: qHTS for Inhibitors of human tyrosyl-DNA phosphodiesterase 1 (TDP1): qHTS in cells in absence of CPT; further: nearly all actives have a fitted effect of over 55% in size
Conditions: DT40 Tdp1-/- hTDP1 cells, no CPT, ATP luminescence, 48 h; activity change, negative = growth inhibition: at 46.2 µM (top of the series) unless noted
Summary of the method: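 Stably hTDP1-transfected Tdp1-null chicken DT40 cells were treated with library compounds minus camptothecin and grown for at least 48 hr at 37 °C, after which cellular ATP was quantified by luminescence.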
On the % scale 0 is the no-effect control and ±100 the full control effect; potency means the concentration at half of the fitted maximal effect; tags describe the fitted curve by direction and shape.

Row | SMILES | Potency | activity change, negative = growth inhibition
1 | CCOCCCNC(=O)CN1C(=O)NC(Cc2c[nH]c3ccccc23)C1=O (stereo not given) | inactive | –
2 | Cn1c(=O)c(=O)n(C)c2cc(N3CCOCC3)c(NS(=O)(=O)c3ccc(F)c(Cl)c3)cc21 | inconclusive [inhibitor, single point] | –
3 | CCN(CC)S(=O)(=O)c1ccc(C(C)NC(=O)Cc2c[nH]c3ccccc23)cc1 (stereo not given) | inconclusive [inhibitor, single point] | –
4 | CCOC(=O)c1[nH]n(-c2ccc(Cl)cc2)c(=O)c1C | inactive | –
5 | Cc1ccc(Cn2c(C(CO)Nc3nc(-c4ccc(Cl)c([N+](=O)[O-])c4)cs3)nc3ccccc32)cc1 (stereo not given) | inconclusive [inhibitor, single point] | –
6 | COc1ccc(-c2csc(/C(C#N)=C/Nc3cc4oc5ccccc5c4cc3OC)n2)cc1 | inactive | –
7 | CCOc1ccc(NC(=O)COC(=O)COc2cccc3c2OC(C)(C)C3)cc1 | inactive | –
8 | Cc1ccc2nc(NC(=O)CCn3c(=O)sc4ccccc43)sc2c1 | inconclusive [inhibitor, single point] | –
9 | COc1ccc(S(=O)(=O)N2CCOC2CNC(=O)C(=O)NCCCc2ccccc2)cc1 (stereo not given) | inconclusive [inhibitor, partial curve] | –
10 | CCCc1cc(C(=O)Nc2cc(Br)ccc2O)no1 | – | inconclusive: -35% [inhibitor]
11 | Cc1ccc(Oc2ccc(NC(=O)Cn3ccsc3=N)cc2)cc1 | inconclusive [inhibitor, single point] | –
12 | Cc1ccc(CNC(=O)C2CCC(CNc3nc(=S)[nH]c4ccccc34)CC2)cc1 (stereo not given) | inconclusive [inhibitor, single point] | –
13 | Oc1c(Br)cc(Br)cc1C=Nc1ccc2[nH]ncc2c1 | inconclusive [inhibitor, single point] | –
14 | Cc1nn2c(NCc3ccccn3)cc(C(C)(C)C)nc2c1-c1ccccc1 | inconclusive [inhibitor, single point] | –
15 | Cc1[nH]c2ccccc2c1CCN(Cc1cccs1)C(=S)Nc1ccccc1 | inconclusive [inhibitor, single point] | –
16 | CCCCC(=O)Nc1ccc(NC(=O)c2ccc([N+](=O)[O-])cc2Cl)cc1OC | inactive | –
17 | CCc1nc(SCc2ccc(OCC(C)C)cc2)n[nH]1 | inconclusive [inhibitor, single point] | –
18 | COc1cc(OC)cc(C2=Cc3ccccc3C(CC(C)=O)N2c2ccc(C#CCCO)cc2)c1 (stereo not given) | inconclusive [inhibitor, partial curve, poor fit] | –
19 | CC(C)C[C@H]1CN([C@@H](CC(C)C)CN2CCC[C@@H]2CN2C(=S)NC[C@@H]2Cc2ccc(O)cc2)C(=S)N1CC1CCCCC1 | active: 16.4 µM | –
20 | COc1cc(/C=C2\SC(=O)NC2=O)ccc1OCc1ccc(Cl)nc1 | inconclusive [inhibitor, partial curve] | –
21 | Clc1ccccc1-c1csc(Nc2cccnc2)n1 | inactive | –
22 | Cc1cccc(C(=O)N[C@H](C(=O)Nc2nccs2)C(C)C)c1 | inactive | –
23 | N#CCCn1cnc2ccccc21 | inactive | –

Row | SMILES | Potency | activity change, negative = growth inhibition
24 | Cc1cc2oc(=O)cc(-c3cc4ccccc4o3)c2cc1O | active: 23.1 µM | –
25 | COc1cccc(/C=N/NC(=O)CNC(=O)COc2cccc(C)c2)c1O | active: 18.4 µM | –
26 | COc1ccc(Cn2nnnc2C(c2ccccc2Cl)N2CCN(C)CC2)cc1 (stereo not given) | inconclusive [inhibitor, single point] | –
27 | CC(C)(C)OC(=O)N1CCC(c2c(C(=O)NCc3ccc4c(c3)OCO4)cnn2-c2ccccc2Cl)CC1 | inconclusive [inhibitor, single point] | –
28 | Cc1nn(-c2ccccc2)c(C)c1-c1nnc(-c2c(C)nn(-c3ccccc3)c2C)o1 | active: 18.4 µM | –
29 | COc1ccccc1/C=N/NC(=O)CC(=O)NCc1ccccc1 | inactive | –
30 | O=c1[nH]cc(-c2ccc(Br)cc2)n1Cc1ccccc1 | inconclusive [inhibitor, single point] | –
31 | CC(C)(C)NC(=S)NNC(=O)c1ccc2ncccc2c1 | inconclusive [inhibitor, single point] | –
32 | O=C(c1ccccc1)c1ccc(Oc2ccc([N+](=O)[O-])cc2[N+](=O)[O-])cc1 | inconclusive [inhibitor, single point] | –
33 | CC(C)CCn1cnc2c1c(=O)n(CC(=O)NC(N)=O)c(=O)n2Cc1ccccc1 | inactive | –
34 | O=C(Nc1ccc(-c2nnc3n2CCCCC3)cc1)c1cc2ccccc2o1 | inconclusive [inhibitor, single point] | –
35 | CCc1noc(C)c1C(=O)Nc1cc(S(=O)(=O)N2CCCCC2)ccc1N(C)C | inconclusive [inhibitor, single point] | –
36 | O=c1ccc(/C=C/c2ccccc2)nn1Cc1ccc(Cl)cc1Cl | inconclusive [inhibitor, single point] | –
37 | CC(C)Oc1ccc(/C=C(\NC(=O)/C=C/c2ccco2)C(=O)NCCc2nc3ccccc3[nH]2)cc1 | inconclusive [inhibitor, single point] | –
38 | O=C(/C=C/c1ccccc1)OCCCCN=C1NS(=O)(=O)c2ccccc21 | active: 25.9 µM | –
39 | CN(C)CCn1c2c(c(SCC(=O)Nc3ccc4c(c3)OCCO4)nc1=O)CCC2 | inactive | –
40 | O=C(CN1C(=O)COc2ccccc21)NCc1ccc(C(=O)O)cc1 | inactive | –
41 | CCN1C(=O)C(=Cc2cccc(OC)c2Oc2ccc([N+](=O)[O-])cc2[N+](=O)[O-])SC1=S | active: 1.46 µM | –
42 | c1ccc(-c2nc3cc4ccccc4cc3[nH]2)nc1 | inconclusive [inhibitor, single point] | –
43 | Cc1c(NC(=O)OCCNC(=O)COc2c(Cl)cccc2Cl)sc(=S)n1C | inactive | –
44 | O=C(/C=C/c1ccc(Cl)cc1Cl)N1CCN(c2ccc([N+](=O)[O-])c(N3CCOCC3)c2)CC1 | active: 23.1 µM | –
45 | CCN(CC)S(=O)(=O)c1ccc(C)c(NC(=O)Cn2c(=O)cnc3ccccc32)c1 | inconclusive [inhibitor, single point] | –

Reference: PubChem BioAssay AID686978 (National Center for Advancing Translational Sciences (NCATS), 2013)
